In the RNAGym collection of RNA variant scans (doi:10.1093/nar/gkz1192):
The source gives no read counts; variants with many changes may rest on few reads.

B1: CPEB3 Ribozyme (parent)
chain: UAACAGGGGGCCACAGCAGAAGCGUUCACGUCGCAGCCCCUGUCAGAUUCUGGUGAAUCUGCGAAUUCUGCUGUAUAUCUC

Variants of: B1
Test: self-cleavage, relative activity (ratio to wild type); higher = more cleavage; in vitro, sequencing
Summary of the method: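 For each CPEB3 ribozyme variant, relative activity is its cleaved/total read fraction divided by the unmutated ribozyme's. Barcoded error-prone PCR libraries were transcribed by T7 RNA polymerase (5 hours, 37°C) and held in DNase I for 15 min before an EDTA stop, with cleavage occurring throughout. Template-switching reverse transcription and Illumina sequencing were used to read the RNAs. A 5-read minimum applied, and results are the mean of three batches.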

Variant | self-cleavage
A13G A57G U72A | 0.42
A13G A57U U72C | 0.34
A13G A64G U69A G70U | 0.09
A13G A64U U69C U78A | 0.14
A13G A65G U67C | 0.12
A13G A65G U69A | 0.39
A13G A65U U76C | 0.25
A13G A75G A77U | 0.93
A13G C14A C17U A21U C38U U51C | 0.11
A13G C14U A45U A64G | 0.26
A13G C14U C59G U60C | 0.11
A13G C14U U54C U66C | 0.25
A13G C17G G22A U25C U26C A35G U74C | 0.06
A13G C17U A47G | 0.46
A13G C17U U25C A35C U66A U72C | 0.04
A13G C17U U26C G52C U54G | 0.15
A13G C23G G70U | 0.15
A13G C23G U25C U26A | 0.49
A13G C23G U25C U26C G36A | 0.2
A13G C23G U26C G33A G36A U54A A57U | 0.22
A13G C23G U26C U31A G36A A64G U66C | 0.03
A13G C23U A35U G52C U54C | 0.12
A13G C23U A45G U58C | 0.98
A13G C23U G42A | 0.09

Variant | self-cleavage
A13G C29A U31C U43C | 0.14
A13G C29U U31C G52A | 0.07
A13G C29U U41A A45U | 0.07
A13G C29U U43A | 0.24
A13G C29U U48A U72G U76C | 0.06
A13G C32A A47G A56U | 0.09
A13G C32G A56U | 0.1
A13G C32U C40G U80C | 0.06
A13G C34U U72C U78A | 0.72
A13G C37A U49A A57G U58C | 0.1
A13G C37U A47G U72A | 0.28
A13G C37U A57G | 0.68
A13G C38A A56G A57G U80C | 0.18
A13G C38A A64G U78C | 0.14
A13G C38U U69A U72C | 0.14
A13G C39G A45U A56U U66A U80A | 0.05
A13G C39G A77G | 0.07
A13G C39G U49C U54C U74A U80A | 0.06
A13G C39U U43C U54A | 0.56
A13G C40A C50A | 0.19
A13G C40A C50A C62G C79G | 0.06
A13G C40A C50A U69C U72A A75U | 0.05
A13G C40A U41A U54C U60A U66C U74C | 0.13
A13G C40A U51G | 0.21

Variant | self-cleavage
A13G C40A U58C U67C G73A U74A U80C | 0.06
A13G C40A U66C U67A G70U | 0.21
A13G C40G U41G A45G U49C | 0.09
A13G C40U A65G U72C U74A | 0.07
A13G C40U U54C A65G U67A A75U | 0.14
A13G C40U U58A U69C | 0.02
A13G C40U U60A A65G | 0.14
A13G C40U U72A A77G | 0.4
A13G C59G A77G | 0.26
A13G C59G U69C A77G | 0.16
A13G C62A A77G | 0.26
A13G C68A U76A | 0.39
A13G G16A C39A A65C | 0.07
A13G G16C A28G A35U U48A U58A A64U | 0.1
A13G G16C C17U U72G A77C | 0.18
A13G G19A U41C U49C A65G | 0.07
A13G G19A U72C U76C | 0.16
A13G G19C A28U U69C U74G A75U | 0.19
A13G G19U A21G U26C C62U | 0.17
A13G G19U A28G G55U A64U | 0.07
A13G G19U G63A U69C | 0.22
A13G G22A C44A | 0.18
A13G G22A U26C U51A U67C | 0.06
A13G G22U A56U U66C U72A U76C | 0.04

Variant | self-cleavage
A13G G24A G53A U74A | 0.18
A13G G24A U25C C37U U60C | 0.12
A13G G24A U25C U41C G46U U72C | 0.19
A13G G24A U25C U41C U54G U66C | 0.16
A13G G24A U41C | 0.07
A13G G24A U58C U80C | 0.22
A13G G24A U60C U69A | 0.08
A13G G24A U78G | 0.18
A13G G24C U72C | 0.29
A13G G24U U25C U31C U41C | 0.28
A13G G30A A75G | 0.11
A13G G30A G46U | 0.17
A13G G30A U31A A47U U60C A65G | 0.08
A13G G30C A56G A64U | 0.57
A13G G33A A57G G73A | 0.31
A13G G33A U41C U51A U72C | 0.06
A13G G33A U80C | 0.3
A13G G33C U51C U78C | 0.07
A13G G33U A35U U41C U60A | 0.16
A13G G36A U41C U60C | 0.27
A13G G36A U54C U67A | 0.1
A13G G36U A77U | 0.06
A13G G42A U51C G52C U60C | 0.11
A13G G42U U78C U80A | 0.41

Variant | self-cleavage
A13G G46C U48C A56U | 0.07
A13G G46U G70A U72C U74A | 0.07
A13G G52A U74A | 1.24
A13G G53A A65U U72G A77G | 0.16
A13G G53A U72C | 0.92
A13G G55A U60C A75G U80C | 0.2
A13G G61A U69C U74A | 0.14
A13G U25A A45C U67C | 0.09
A13G U25A A45U A77G | 0.13
A13G U25A G30A A45G G55A | 0.17
A13G U25A U41C U43C | 0.23
A13G U25A U48C A75U | 0.12
A13G U25A U51A A56G U58A U66C | 0.1
A13G U25A U67A U78A | 0.06
A13G U25A U80C | 0.22
A13G U25C A28G G33A C39A U58C A75G | 0.09
A13G U25C A45G A56G U80A | 0.17
A13G U25C A64G | 0.36
A13G U25C A64G U67C | 0.13
A13G U25C A65G | 0.2
A13G U25C A75G | 0.26
A13G U25C C29A A56U C68A U80C | 0.16
A13G U25C C32U U60C | 0.13
A13G U25C C40U A57G | 0.17

Variant | self-cleavage
A13G U25C G33A A35G | 0.34
A13G U25C U41A U51A C71U U80A | 0.04
A13G U25C U41A U67C | 0.39
A13G U25C U41C U80C | 0.11
A13G U25C U43C U49C A64U | 0.12
A13G U25C U43G A56G U69C | 0.15
A13G U25C U43G U58A | 0.19
A13G U25C U48C U60C A65C | 0.34
A13G U25C U49A A56G | 0.23
A13G U25C U49A U51C C68U | 0.09
A13G U25C U54A U80C | 0.34
A13G U25C U54C | 0.31
A13G U25C U54C U60C A64G | 0.05
A13G U25C U58A | 0.16
A13G U25C U60C A64G A65G U67C | 0.09
A13G U25C U72C | 0.31
A13G U25G U43C A56G U66C | 0.35
A13G U25G U58C | 0.26
A13G U26A A35G G42A U48C | 0.21
A13G U26A A35G U43A A56U U72C | 0.06
A13G U26A A35U | 0.24
A13G U26A A56U G61A U74G | 0.09
A13G U26A C37G U67C | 0.38
A13G U26A C50A | 0.49

Variant | self-cleavage
A13G U26A G61A | 0.38
A13G U26A U43C U49C A75U | 0.08
A13G U26A U48C U74C | 0.31
A13G U26A U60G G63A U69C | 0.17
A13G U26A U67C | 0.37
A13G U26A U74C | 0.59
A13G U26C A35U C40U A45G | 0.1
A13G U26C A45G | 0.14
A13G U26C A45U | 0.38
A13G U26C A64G U72C | 0.04
A13G U26C C32U A35G G55A A56G A64G | 0.04
A13G U26C C40U U66C | 0.05
A13G U26C G33U A47G A64G | 0.12
A13G U26C G36A U43C A65G C71U | 0.1
A13G U26C U43C A47G U76C A77G | 0.43
A13G U26C U43G U49C U60C | 0.35
A13G U26C U43G U78C | 0.84
A13G U26C U48C | 0.24
A13G U26C U49C U72G | 0.16
A13G U26C U60C U76C | 0.15
A13G U26C U60G | 0.12
A13G U26C U66A A77G | 0.33
A13G U26C U80C | 0.61
